# In all, about 390,000 compounds went through this assay and about 4,000 (1%) were called active. The shares of active, inactive and inconclusive entries below differ from those in the screen. The call rests on the fitted dose curve; in most records, active means well fitted inhibition curve with a large enough effect; inconclusive means small, poorly fitted or top-dose-only effect; inactive means no such curve, though single readings can be large or run the other way. Potencies of inconclusive entries are doubtful fits and often do not repeat.
# Biological target: Thioredoxin reductase 1, cytoplasmic (Rattus norvegicus) (UniProt O89049)
# Sequence of UniProt O89049 (O89049 whole entry, looked up): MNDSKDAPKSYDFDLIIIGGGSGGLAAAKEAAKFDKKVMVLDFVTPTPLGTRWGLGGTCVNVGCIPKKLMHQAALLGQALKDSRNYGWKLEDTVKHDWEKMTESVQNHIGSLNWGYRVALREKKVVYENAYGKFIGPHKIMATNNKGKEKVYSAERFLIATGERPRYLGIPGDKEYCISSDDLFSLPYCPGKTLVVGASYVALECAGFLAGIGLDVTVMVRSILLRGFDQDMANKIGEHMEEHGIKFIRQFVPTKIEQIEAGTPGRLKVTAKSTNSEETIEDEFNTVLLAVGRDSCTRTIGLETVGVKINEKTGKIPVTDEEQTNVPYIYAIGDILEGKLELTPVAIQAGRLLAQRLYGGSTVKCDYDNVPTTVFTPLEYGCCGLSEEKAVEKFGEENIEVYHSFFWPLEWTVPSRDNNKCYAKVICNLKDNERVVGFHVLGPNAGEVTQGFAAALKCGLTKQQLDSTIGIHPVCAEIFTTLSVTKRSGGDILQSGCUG
# Test: qHTS Assay for Inhibitors of Mammalian Selenoprotein Thioredoxin Reductase 1 (TrxR1): qHTS; further: nearly all actives have a fitted effect of over 65% in size
# Conditions: recombinant rTrxR1, NADPH fluorescence consumption, selenite substrate; series mostly up to 114 µM
# In short: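 Rat TrxR1 (90 nM in the dispensed reagent) was pre-reduced with 400 uM NADPH for 5 min at room temperature, then incubated with compound for 15 min. After 400 uM selenite was added, NADPH fluorescence (Ex 340/Em 450 nm) was followed for 8 min.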
# Potency means the concentration at half of the fitted maximal effect; tags describe the fitted curve by direction and shape.
row,Compound,Potency
1,O=C(O)CCC(=O)N1CCN(c2nc(-c3ccccc3)c3cc(Br)ccc3n2)CC1,"inconclusive: 79.4 µM [inhibitor, partial curve, poor fit]"
2,OC[C@@H]1[C@@H](c2ccc(Cl)cc2)C(c2cccc(Cl)c2)=NN1c1ccccc1,"inconclusive: 89.1 µM [inhibitor, single point]"
3,Cc1ccc(N2C(=O)C3C4C=CC(CNC(=S)N5CCN(c6ccccn6)CC5)(O4)C3C2=O)cc1 (stereo not drawn),active: 11.2 µM
4,Cc1coc2c(C)c3oc(=O)c(CCC(=O)NCCN4CCOCC4)c(C)c3cc12,inactive
5,CCCCn1c(=O)[nH]c2nc3cc(N)ccc3nc2c1=O,"inconclusive: 12.6 µM [inhibitor, partial curve]"
6,Cn1c(=O)c2c(nc(NCCCN3CCOCC3)n2Cc2cccc(Cl)c2)n(C)c1=O,"inconclusive: 35.5 µM [inhibitor, single point]"
7,C#CCOCCOCCOCCNc1nc(N2CCN(C(=O)Cn3cc(CC(C)O)nn3)CC2)nc(N2CCN(C(=O)[C@H]([C@@H](C)CC)n3cc(CCCCN)nn3)CC2)n1 (stereo partly drawn),"inconclusive: 20 µM [inhibitor, full curve]"
8,CCc1ccc(OCC(=O)NC(=S)Nc2cccc(CO)c2)c(Br)c1,"inconclusive: 17.8 µM [inhibitor, single point]"
9,O=c1nc(/C=C/c2cc([N+](=O)[O-])ccc2Cl)cc(C(F)(F)F)[nH]1,"inconclusive: 89.1 µM [inhibitor, single point]"
10,CCCCCCCNC(=O)C1(CC2CC(c3cccc(Br)c3)=NO2)CCNCC1 (stereo not drawn),"inconclusive: 56.2 µM [inhibitor, partial curve, poor fit]"
11,CCC1=C(CC2NCCc3ccccc32)CC2c3cc(OC)c(OC)cc3CCN2C1 (stereo not drawn),inactive
12,CCn1nccc1C(=O)Nc1ccc(Cl)cc1Cl,inactive
13,CCN1CCN(c2cc(=O)n(-c3cc(Cl)ccc3C)c(=O)[nH]2)CC1,"inconclusive: 6.31 µM [inhibitor, partial curve]"
14,COc1cccc(CNc2cccc3cccnc23)c1O,"inconclusive: 89.1 µM [inhibitor, single point]"
15,COc1ccc2nc(N3C(=O)C(O)=C(C(=O)c4ccco4)C3c3ccc(C)o3)sc2c1 (stereo not drawn),inactive
16,CC(=O)N1CCN(C(=S)c2ccc(N(C)C)cc2)CC1,"inconclusive: 70.8 µM [inhibitor, single point]"
17,COc1ccc(OC)c(CN2CCN(C(=O)c3ccc(S(=O)(=O)Nc4ccccc4F)cc3)CC2)c1,"inconclusive: 79.4 µM [inhibitor, partial curve]"
18,CCCC(C(=O)NC1CCCC1)N(C(=O)Cn1nnc(-c2ccc(C)o2)n1)C1CCCC1 (stereo not drawn),"inconclusive: 20 µM [inhibitor, partial curve, poor fit]"
19,CC(=O)NC1=C(NC2CCS(=O)(=O)C2)C(=O)c2ccccc2C1=O (stereo not drawn),"inconclusive: 3.55 µM [inhibitor, full curve, poor fit]"
20,CCOc1ccc2nc(Cl)c(C3CC(c4ccc(C)cc4)=NN3C(=O)CCCC(=O)O)cc2c1 (stereo not drawn),inactive
21,CNc1oc(C)nc1S(=O)(=O)c1ccccc1,"inconclusive: 3.55 µM [inhibitor, partial curve, poor fit]"
22,Cc1ccccc1NC(=S)NC(=O)COc1ccccc1C,"inconclusive: 79.4 µM [inhibitor, single point]"
23,Cc1cc(C)cc(Oc2nc3c(C)cccn3c(=O)c2/C=C(\C#N)C(=O)NC2CCS(=O)(=O)C2)c1 (stereo not drawn),"inconclusive: 39.8 µM [inhibitor, partial curve]"

row,Compound,Potency
1,C=CCn1c(C(CC)CC(C)(C)O)n[nH]c1=S (stereo not drawn),"inconclusive: 79.4 µM [inhibitor, single point]"
2,Cc1ccc(C(=O)N/N=C/C=C/c2ccccc2)o1,"inconclusive: 39.8 µM [inhibitor, partial curve]"
3,COc1ccccc1N1CCN(C(=O)c2cc(-c3ccco3)on2)CC1,active: 44.7 µM
4,Fc1ccc(CNc2nc(-c3ccco3)cc(C(F)(F)F)n2)cc1,active: 25.1 µM
5,NC(=S)N/N=C/c1ccccc1,inactive
6,O=S1(=O)CCOCCCN1Cc1cccc(Cl)c1,inactive
7,CCSc1ccccc1C(=O)n1nnc2ccccc21,"inconclusive: 25.1 µM [inhibitor, partial curve, poor fit]"
8,Cc1ccc(S(=O)(=O)CCC(=O)Nc2sccc2C#N)cc1,"inconclusive: 89.1 µM [inhibitor, single point]"
9,CCCc1c(CC)c(=N)c2ccccc2n1C,inactive
10,CCOC(=O)c1nnc(-c2cccs2)nc1Oc1ccccc1C(=O)OC,"inconclusive: 44.7 µM [inhibitor, partial curve, poor fit]"
11,CN(C(=O)c1ccccn1)c1nnc(-c2ccccn2)s1,"inconclusive: 25.1 µM [inhibitor, single point]"
12,Cc1cc(C(=O)N/N=C/c2cc(Cl)cc([N+](=O)[O-])c2O)c2ccccc2n1,"inconclusive: 70.8 µM [inhibitor, partial curve]"
13,COc1ccc(Cl)cc1NC(=O)COC(=O)c1cc(C)oc1C,inactive
14,CCCCC1=CC2=C(c3ccco3)C(=O)C(C)(OC(=O)c3ccc(OC)cc3)C(=O)C2=CN1Cc1ccc2c(c1)OCO2 (stereo not drawn),inactive
15,NC(=S)N/N=C/c1c(O)ccc2ccccc12,inactive
16,O=C(Nc1ncnc2sc3c(c12)CCC3)c1ccco1,"inconclusive: 8.91 µM [inhibitor, partial curve, poor fit]"
17,C=CCOC(=O)/C=C/C(=O)NC(N)=O,"inconclusive: 10 µM [inhibitor, partial curve, poor fit]"
18,CN1CCCN(S(=O)(=O)c2ccc3ccccc3c2)CC1,"inconclusive: 79.4 µM [inhibitor, single point]"
19,COc1ccccc1CN(Cc1cc2c(C)ccc(C)c2[nH]c1=O)Cc1nnnn1Cc1ccco1,inactive
20,Cc1cc(=O)c(C(=O)O)nn1-c1ccccc1F,"inconclusive: 39.8 µM [inhibitor, single point]"
21,Cc1cnccc1CN(C)Cc1nc(Cc2ccccc2Cl)no1,"inconclusive: 8.91 µM [inhibitor, single point]"
22,O=C1CCCc2nc(N3CCN(C(=O)c4ccco4)CC3)ncc21,"inconclusive: 56.2 µM [inhibitor, single point]"
23,CN(C)/C=C/c1onc(-c2c(F)cccc2Cl)c1C#N,"inconclusive: 22.4 µM [inhibitor, partial curve, poor fit]"

row,Compound,Potency
1,CCn1cc(C(=O)N(C)Cc2ccccc2)c(=O)c2cc(S(=O)(=O)N3CCCCC3)ccc21,inactive
2,CCn1c(=O)n(CC)c2cc(N3CCCC3)c(NC(=O)c3ccccc3Br)cc21,"inconclusive: 35.5 µM [inhibitor, single point]"
3,Nc1sc2c(c1C(=O)NC1CCS(=O)(=O)C1)CCC2 (stereo not drawn),active: 25.1 µM
4,COc1ccccc1/C=C/C=N/n1c(-c2ccc(F)cc2)n[nH]c1=S,"inconclusive: 79.4 µM [inhibitor, single point]"
5,CCOC(=O)c1c(S(=O)(=O)NCCc2cccs2)c(C)n(C)c1C,"inconclusive: 20 µM [inhibitor, partial curve]"
6,Cc1nn(C(C)C(=O)NCCCN2CCCCCC2)c(=O)c2cc3sccc3n12 (stereo not drawn),"inconclusive: 17.8 µM [inhibitor, partial curve, poor fit]"
7,Cc1[nH]nc2c1C(c1ccco1)C(C#N)=C(N)O2 (stereo not drawn),"inconclusive: 17.8 µM [inhibitor, partial curve, poor fit]"
8,CC(=O)C1=C(O)C(=O)N(Cc2ccccc2)C1c1ccco1 (stereo not drawn),"inconclusive: 12.6 µM [inhibitor, partial curve, poor fit]"
9,CCCCC(=O)Nc1cccc(-c2nnc(-c3ccccc3)o2)c1,"inconclusive: 63.1 µM [inhibitor, single point]"
10,CCCS(=O)(=O)c1c(S(=O)(=O)CCC)c2c(N)cccn2c1C(=O)c1ccc(Br)cc1,"inconclusive: 20 µM [inhibitor, partial curve, poor fit]"
11,Cc1cc(C)c(C(=O)/C=C/C=C/c2ccccc2)c(=O)[nH]1,"inconclusive: 56.2 µM [inhibitor, partial curve, poor fit]"
12,ON/C=N/C(=S)Nc1ncc(C(F)(F)F)cc1Cl,inactive
13,Cc1cc(C)nc(SCc2ccc(C(=O)N/N=C/c3ccncc3)cc2)n1,"inconclusive: 56.2 µM [inhibitor, partial curve, poor fit]"
14,COCCn1c(C)cc(O)c(C(c2ccccc2)N2CCN(c3ccccc3F)CC2)c1=O (stereo not drawn),"inconclusive: 12.6 µM [inhibitor, partial curve]"
15,O=c1c2ccccc2nnn1-c1ccc(Br)cc1,inactive
16,O=C(Nc1nc(-c2ccco2)cs1)c1ccccc1,"inconclusive: 31.6 µM [inhibitor, partial curve, poor fit]"
17,COc1cccc2c1OC1(C)CC2NC(=O)N1c1cccc(C(=O)Nc2ccc3c(c2)OCCO3)c1 (stereo not drawn),"inconclusive: 70.8 µM [inhibitor, single point]"
18,Nc1ccc(O)c2c1C(=O)c1ccccc1C2=O,inactive
19,O=S(=O)(Cc1ccccc1)CS(=O)(=O)Cc1ccccc1,"inconclusive: 11.2 µM [inhibitor, partial curve, poor fit]"
20,Nc1nccc(SCc2ccc(Cl)cc2Cl)n1,"inconclusive: 89.1 µM [inhibitor, single point]"
21,COC(=O)c1cc(-c2ccc(Cl)cc2)c2c(=O)[nH]c(=O)n(C)c2n1,inactive
22,Cn1c2ccccc2c(=O)c2c(=O)n(Cc3ccco3)c(COc3ccccc3)nc21,"inconclusive: 31.6 µM [inhibitor, partial curve, poor fit]"
